# Data from the supplement of paper PMC8728848.
# This is one part of the list.
# B1: PX14379A-bvu-539-28-539 (Bacteroides vulgatus) (protein)
# chain: EPYSEIIEEDYVPTEADEIALLATTYSQLRFVMDWYGLFDLQEESGDVIVTPTRPNGWDDGGTYKQMHKHTWDNQQGQPQSIWDYCYKGIANANKILKRADEGFFTEESKPKVVAEVKGVRALWYSILCDTHGNIPIQTSFSEEVPVQSTRKQVFDFIINELKEVMPNLPTEVNKSTYGRLTQWGAKCLMARMYLNAGVYTGTPMWNECLEQCNDIINSGLFSLETNYTDIFKTENSGCVETIFAIPYDEVYNEGDNNGPVFGAHMKFLSSNSRKVFNMQTTPWGGSAANPQFINSYDPDDMRLKYTWLQGDQYSPDGVLITTFPNKLPSIYKTDTDDGYRVGKYEIKVGAKSLLSNDFPYFRYTEVLLMKAECLLRLGQNETEAAHIVSQIRERAFRESAHPEKATVDAAWLKGDTHINYGTLDEKGQIDDAGNTEVVELGGLYDEWGWEFAAEARRRTDMIRFGTYQKKSWFNHTPTANDLNGNSILFPIHLDHLNTNPNLQQNPGYAGK
# How the values were obtained:
# Assay in all cases: glycan array binding signal (z-score within array); higher = stronger binding
# Conditions in all cases: glycan notation: IUPAC condensed, linker removed
# [1] = molecular target: Gal(b1-4)GlcNAc(b1-3)Gal(b1-4)GlcNAc(b1-2)[Gal(b1-4)GlcNAc(b1-3)Gal(b1-4)GlcNAc(b1-6)]Man(a1-6)[Gal(b1-4)GlcNAc(b1-3)Gal(b1-4)GlcNAc(b1-2)Man(a1-3)]Man(b1-4)GlcNAc(b1-4)GlcNAc
# Outline: (§1)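 Columns mapping to the same glycan were averaged after glycan names were converted to IUPAC-condensed notation. The data come from 3228 arrays in the Consortium for Functional Glycomics database, limited to those with an available protein sequence. Binding is reported as a within-array Z-score averaged across arrays of one protein sequence and across linkers.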
# [2] = molecular target: Gal(b1-4)GlcNAc(b1-3)Gal(b1-4)GlcNAc(b1-2)[Gal(b1-4)GlcNAc(b1-3)Gal(b1-4)GlcNAc(b1-6)]Man(a1-6)[Gal(b1-4)GlcNAc(b1-3)Gal(b1-4)GlcNAc(b1-2)Man(a1-3)]Man(b1-4)GlcNAc(b1-4)[Fuc(a1-6)]GlcNAc
# Outline: as §1
# [3] = molecular target: Gal(b1-4)GlcNAc(b1-3)Gal(b1-4)GlcNAc(b1-3)Gal(b1-4)GlcNAc
# Outline: as §1
# [4] = molecular target: Gal(b1-4)GlcNAc(b1-3)Gal(b1-4)GlcNAc(b1-3)Gal(b1-4)GlcNAc(b1-2)Man(a1-3)[Gal(b1-4)GlcNAc(b1-3)Gal(b1-4)GlcNAc(b1-3)Gal(b1-4)GlcNAc(b1-2)Man(a1-6)]Man(b1-4)GlcNAc(b1-4)GlcNAc
# Outline: as §1
# [5] = molecular target: Gal(b1-4)GlcNAc(b1-3)Gal(b1-4)GlcNAc(b1-3)Gal(b1-4)GlcNAc(b1-2)Man(a1-3)[Gal(b1-4)GlcNAc(b1-3)Gal(b1-4)GlcNAc(b1-3)Gal(b1-4)GlcNAc(b1-2)Man(a1-6)]Man(b1-4)GlcNAc(b1-4)[Fuc(a1-6)]GlcNAc
# Outline: as §1
# [6] = molecular target: Gal(b1-4)GlcNAc(b1-3)Gal(b1-4)GlcNAc(b1-3)Gal(b1-4)GlcNAc(b1-2)[Gal(b1-4)GlcNAc(b1-3)Gal(b1-4)GlcNAc(b1-3)Gal(b1-4)GlcNAc(b1-6)]Man(a1-6)[Gal(b1-4)GlcNAc(b1-3)Gal(b1-4)GlcNAc(b1-3)Gal(b1-4)GlcNAc(b1-2)Man(a1-3)]Man(b1-4)GlcNAc(b1-4)[Fuc(a1-6)]GlcNAc
# Outline: as §1
# [7] = molecular target: Gal(b1-4)GlcNAc(b1-3)Gal(b1-4)GlcNAc(b1-3)Gal(b1-4)GlcNAc(b1-3)Gal(b1-4)GlcNAc(b1-2)Man(a1-3)[Gal(b1-4)GlcNAc(b1-3)Gal(b1-4)GlcNAc(b1-3)Gal(b1-4)GlcNAc(b1-3)Gal(b1-4)GlcNAc(b1-2)Man(a1-6)]Man(b1-4)GlcNAc(b1-4)GlcNAc
# Outline: as §1
# [8] = molecular target: Gal(b1-4)GlcNAc(b1-3)Gal(b1-4)GlcNAc(b1-3)Gal(b1-4)GlcNAc(b1-3)Gal(b1-4)GlcNAc(b1-2)Man(a1-3)[Gal(b1-4)GlcNAc(b1-3)Gal(b1-4)GlcNAc(b1-3)Gal(b1-4)GlcNAc(b1-3)Gal(b1-4)GlcNAc(b1-2)Man(a1-6)]Man(b1-4)GlcNAc(b1-4)[Fuc(a1-6)]GlcNAc
# Outline: as §1
# [9] = molecular target: Gal(b1-4)GlcNAc(b1-3)Gal(b1-4)GlcNAc(b1-3)Gal(b1-4)GlcNAc(b1-3)Gal(b1-4)GlcNAc(b1-2)[Gal(b1-4)GlcNAc(b1-3)Gal(b1-4)GlcNAc(b1-3)Gal(b1-4)GlcNAc(b1-3)Gal(b1-4)GlcNAc(b1-6)]Man(a1-6)[Gal(b1-4)GlcNAc(b1-3)Gal(b1-4)GlcNAc(b1-3)Gal(b1-4)GlcNAc(b1-3)Gal(b1-4)GlcNAc(b1-2)Man(a1-3)]Man(b1-4)GlcNAc(b1-4)[Fuc(a1-6)]GlcNAc
# Outline: as §1
# [10] = molecular target: Gal(b1-4)GlcNAc(b1-3)Gal(b1-4)GlcNAc(b1-3)Gal(b1-4)GlcNAc(b1-3)Gal(b1-4)GlcNAc(b1-3)Gal(b1-4)GlcNAc(b1-2)Man(a1-3)[Gal(b1-4)GlcNAc(b1-3)Gal(b1-4)GlcNAc(b1-3)Gal(b1-4)GlcNAc(b1-3)Gal(b1-4)GlcNAc(b1-3)Gal(b1-4)GlcNAc(b1-2)Man(a1-6)]Man(b1-4)GlcNAc(b1-4)GlcNAc
# Outline: as §1
# [11] = molecular target: Gal(b1-4)GlcNAc(b1-3)Gal(b1-4)GlcNAc(b1-3)Gal(b1-4)GlcNAc(b1-3)Gal(b1-4)GlcNAc(b1-3)Gal(b1-4)GlcNAc(b1-2)Man(a1-3)[Gal(b1-4)GlcNAc(b1-3)Gal(b1-4)GlcNAc(b1-3)Gal(b1-4)GlcNAc(b1-3)Gal(b1-4)GlcNAc(b1-3)Gal(b1-4)GlcNAc(b1-2)Man(a1-6)]Man(b1-4)GlcNAc(b1-4)[Fuc(a1-6)]GlcNAc
# Outline: as §1
# [12] = molecular target: Gal(b1-4)GlcNAc(b1-3)Gal(b1-4)GlcNAc(b1-3)Gal(b1-4)GlcNAc(b1-3)Gal(b1-4)GlcNAc(b1-3)Gal(b1-4)GlcNAc(b1-2)[Gal(b1-4)GlcNAc(b1-3)Gal(b1-4)GlcNAc(b1-3)Gal(b1-4)GlcNAc(b1-3)Gal(b1-4)GlcNAc(b1-3)Gal(b1-4)GlcNAc(b1-6)]Man(a1-6)[Gal(b1-4)GlcNAc(b1-3)Gal(b1-4)GlcNAc(b1-3)Gal(b1-4)GlcNAc(b1-3)Gal(b1-4)GlcNAc(b1-3)Gal(b1-4)GlcNAc(b1-2)Man(a1-3)]Man(b1-4)GlcNAc(b1-4)[Fuc(a1-6)]GlcNAc
# Outline: as §1
# [13] = molecular target: Gal(b1-4)GlcNAc(b1-3)Gal(b1-4)GlcNAc(b1-3)Gal(b1-4)GlcNAc(b1-3)Gal(b1-4)GlcNAc(b1-3)Gal(b1-4)GlcNAc(b1-3)Gal(b1-4)GlcNAc(b1-2)Man(a1-3)[Gal(b1-4)GlcNAc(b1-3)Gal(b1-4)GlcNAc(b1-3)Gal(b1-4)GlcNAc(b1-3)Gal(b1-4)GlcNAc(b1-3)Gal(b1-4)GlcNAc(b1-3)Gal(b1-4)GlcNAc(b1-2)Man(a1-6)]Man(b1-4)GlcNAc(b1-4)GlcNAc
# Outline: as §1
# [14] = molecular target: Gal(b1-4)GlcNAc(b1-3)Gal(b1-4)GlcNAc(b1-3)GalNAc
# Outline: as §1
# [15] = molecular target: Gal(b1-4)GlcNAc(b1-3)Gal(b1-4)GlcNAc(b1-3)[Gal(b1-4)GlcNAc(b1-3)Gal(b1-4)GlcNAc(b1-6)]GalNAc
# Outline: as §1
# [16] = molecular target: Gal(b1-4)GlcNAc(b1-3)Gal(b1-4)GlcNAc(b1-6)[Gal(b1-3)]GalNAc
# Outline: as §1
# [17] = molecular target: Gal(b1-4)GlcNAc(b1-3)Gal(b1-4)[Fuc(a1-3)]GlcNAc(b1-3)Gal(b1-4)[Fuc(a1-3)]GlcNAc
# Outline: as §1
# [18] = molecular target: Gal(b1-4)GlcNAc(b1-3)GalNAc
# Outline: as §1
binder,measurement,setting,value
B1,glycan array binding signal (z-score),[1],-0.245
same,glycan array binding signal (z-score),[2],7.27
same,glycan array binding signal (z-score),[3],-0.252
same,glycan array binding signal (z-score),[4],0.726
same,glycan array binding signal (z-score),[5],1.02
same,glycan array binding signal (z-score),[6],1.51
same,glycan array binding signal (z-score),[7],1.17
same,glycan array binding signal (z-score),[8],0.984
same,glycan array binding signal (z-score),[9],0.286
same,glycan array binding signal (z-score),[10],9.41
same,glycan array binding signal (z-score),[11],0.094
same,glycan array binding signal (z-score),[12],0.298
same,glycan array binding signal (z-score),[13],0.819
same,glycan array binding signal (z-score),[14],0.271
same,glycan array binding signal (z-score),[15],0.064
same,glycan array binding signal (z-score),[16],0.048
same,glycan array binding signal (z-score),[17],-0.088
same,glycan array binding signal (z-score),[18],-0.16
